# ± gives the standard deviation of the averaged measurements. Over roughly 33,000 sequences, “E-score (dimensionless, -0.5 to 0.5)” has its median near -0.049; the highest 2% begin near 0.37. Some of the results follow.
# System: T1, PmTbr T-box DNA-binding domain (GST fusion)
# T1 sequence: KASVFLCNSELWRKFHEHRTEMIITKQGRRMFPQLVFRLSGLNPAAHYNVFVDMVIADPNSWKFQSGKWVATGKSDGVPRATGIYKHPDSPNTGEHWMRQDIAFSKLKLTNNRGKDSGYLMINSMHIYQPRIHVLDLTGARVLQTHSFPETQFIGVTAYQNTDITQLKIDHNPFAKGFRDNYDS
# Assay: PBM E-score of 8-mer (E-score (dimensionless, -0.5 to 0.5)); Tbr is Tbrain of the sea star Patiria miniata (Pm) or the sea urchin Strongylocentrotus purpuratus (Sp); higher = stronger binding preference; most listed sequences are background and not binding sites
# Conditions: the construct has about 5 more residues each side
# Summary of the method: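 Primer extension turned Universal Agilent oligonucleotide arrays double-stranded. They were incubated with 200 nM protein in PBS (pH 7.5); the protein was a GST-fused Tbr T-box DNA-binding domain expressed in BL21 E. coli at 20 °C and purified on glutathione. Every ungapped 8-mer was scored from the scanned, quantified probe intensities, and the Universal PBM Analysis Suite gave each an enrichment E-score averaged over duplicate arrays.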
row,Sequence,PBM E-score of 8-mer
1,ATTTTTAA,-0.145 ± 0.036
2,CGATGGTA,-0.0934 ± 0.015
3,GCAACACC,0.455 ± 0.0097
4,CCACCCAA,0.0368 ± 0.047
5,GACGATGC,-0.117 ± 0.015
6,AATAACGG,-0.0235 ± 0.014
7,TCGCGAGA,0.334 ± 0.0074
8,AGCTACGG,-0.169 ± 0.0041
9,GCCGTTAC,-0.117 ± 0.026
10,CTCCTGTC,-0.0333 ± 0.029
11,ATAAGGAG,-0.0477 ± 0.013
12,GGTGGCAC,0.38829 ± 0.00023
13,CTCCATCA,0.123 ± 0.077
14,AATGGGCA,-0.203 ± 0.024
15,CGAAACCG,0.0109 ± 0.086
16,CAACTATC,0.0849 ± 0.039
17,GCCACAGA,-0.00231 ± 0.073
18,CAACAAGG,0.0409 ± 0.046
19,CTGTGCAC,0.0968 ± 0.0069
20,AAAAATGA,-0.0842 ± 0.076
21,AACAGTGT,0.224 ± 0.048
22,AGCCACAT,-0.0747 ± 0.023
23,CGCGACAA,0.336 ± 0.0038
24,CCCATTTA,0.0289 ± 0.005
25,CACAAGCC,-0.0612 ± 0.095

row,Sequence,PBM E-score of 8-mer
1,CGACGATC,-0.0963 ± 0.064
2,ACGTCACT,0.2087 ± 0.0019
3,CTCACTTC,0.264 ± 0.0028
4,GATTTGGC,0.249 ± 0.01
5,AGCATAGA,-0.107 ± 0.065
6,ATGCCCGA,0.0118 ± 0.085
7,TAATATTA,-0.139 ± 0.049
8,CCTCTCGC,0.222 ± 0.013
9,ATCGCAAT,0.136 ± 0.061
10,CGGCGCAA,-0.108 ± 0.011
11,CCACATAA,-0.0596 ± 0.046
12,CTTCTTTC,-0.208 ± 0.021
13,GCGCGAGA,0.357 ± 0.014
14,CGTCAAGA,0.162 ± 0.068
15,TAGACCTA,-0.256 ± 0.031
16,GCTTAAGC,-0.292 ± 0.0039
17,CTCGGATA,-0.214 ± 0.025
18,CGTAAACC,-0.157 ± 0.028
19,ATGGGGTC,-0.228 ± 0.015
20,TGAGGTAA,-0.0864 ± 0.037
21,AAAGGAGG,-0.165 ± 0.035
22,CAATAATC,-0.0282 ± 0.026
23,CGAGGGCC,-0.193 ± 0.054
24,ATGATCAT,-0.111 ± 0.024
25,GATACACC,0.149 ± 0.072

row,Sequence,PBM E-score of 8-mer
1,AGGCCGGA,-0.191 ± 0.011
2,ACGAACGT,0.0835 ± 0.007
3,CATAGACG,-0.0237 ± 0.038
4,GAAGTCTC,0.102 ± 0.062
5,CGGAAACA,-0.089 ± 0.047
6,CATGTTAA,0.0464 ± 0.07
7,ATCCCGAG,-0.13 ± 0.051
8,ATTAGGCC,-0.314 ± 0.016
9,GAGGAATA,-0.274 ± 0.02
10,AATCATCG,0.0556 ± 0.04
11,GGGCGACA,0.305 ± 0.024
12,GCCGCGAC,0.0997 ± 0.071
13,TAGAATGA,0.0191 ± 0.0097
14,ACTTTTTG,0.233 ± 0.061
15,GTACTACA,-0.136 ± 0.045
16,ACCAGTCC,-0.0849 ± 0.0027
17,AGCTACTA,-0.148 ± 0.016
18,CACTTGAC,0.338 ± 0.033
19,GACTTATC,-0.0556 ± 0.021
20,CGGTCCAC,-0.155 ± 0.0022
21,AAGAGCCG,-0.104 ± 0.013
22,GGGCACGA,-0.153 ± 0.021
23,GCCCCGGC,-0.356 ± 0.021
24,AGAGACGC,-0.246 ± 0.01
25,CGGTTGAA,-0.16 ± 0.04

row,Sequence,PBM E-score of 8-mer
1,GCTATGCA,-0.125 ± 0.016
2,AGTGGAGG,-0.0432 ± 0.017
3,ATCGGAGG,-0.0779 ± 0.0076
4,ACATGCGG,-0.0519 ± 0.054
5,ATTCTCAC,0.435 ± 0.017
6,GTACAGGA,-0.327 ± 0.024
7,ACGCCGTG,0.234 ± 0.027
8,ACTGTAAT,-0.0745 ± 0.04
9,ATCTACTC,-0.321 ± 0.0036
10,CTAGAGCA,-0.154 ± 0.046
11,AGATATGG,-0.26 ± 0.047
12,CCTGTAAA,0.0528 ± 0.045
13,CCCTGAAA,-0.058 ± 0.0072
14,AAAGCCAA,-0.217 ± 0.011
15,CCACGAGC,-0.0272 ± 0.08
16,ACTTTTAA,-0.264 ± 0.016
17,AGTTTCCC,-0.116 ± 0.012
18,CGCGAAGA,0.363 ± 0.011
19,GATCGGGC,-0.106 ± 0.071
20,ACCGCGCT,0.0428 ± 0.014
21,ACTGCGGA,-0.259 ± 0.0077
22,CCGACTGC,-0.0802 ± 0.031
23,ACTCAGCT,-0.0519 ± 0.0062
24,ATCTGCAA,-0.12 ± 0.016
25,AGGAACGA,-0.141 ± 0.068

row,Sequence,PBM E-score of 8-mer
1,ACTCTCGC,0.2 ± 0.069
2,CAGACTTC,-0.202 ± 0.016
3,AGCACGCC,0.0358 ± 0.042
4,AGGAGGTA,-0.0739 ± 0.034
5,GCAGACAA,-0.0224 ± 0.054
6,ATTTTAGA,-0.0317 ± 0.08
7,GGTCCAAA,-0.116 ± 0.0032
8,AGACCCAC,0.0312 ± 0.0042
9,ATGGGTTA,-0.00983 ± 0.068
10,GGCCCGAA,-0.228 ± 0.055
11,AGAGAGAT,-0.138 ± 0.032
12,CCGCTTCA,0.00946 ± 0.017
13,ATGTACAT,-0.141 ± 0.055
14,CGTACCAG,-0.184 ± 0.022
15,AGCCGTCA,0.161 ± 0.0066
16,TTGGACAA,-0.0267 ± 0.083
17,AACCATGG,-0.00506 ± 0.043
18,AGCCACGG,-0.119 ± 0.013
19,AGATCGTA,0.0776 ± 0.06
20,ATGGTAAT,-0.145 ± 0.033
21,CAGTGCAG,-0.188 ± 0.01
22,ACGCACGC,0.0524 ± 0.077
23,CGTAGCCA,-0.224 ± 0.017
24,CTAGGTGA,0.398 ± 0.014
25,GCGCTTGA,-0.0391 ± 0.02

row,Sequence,PBM E-score of 8-mer
1,ACTGAAGG,-0.0601 ± 0.011
2,AAACCTGA,0.0859 ± 0.12
3,ATATTACA,0.11 ± 0.012
4,AGTCTAGC,-0.096 ± 0.025
5,GACATCCC,-0.0596 ± 0.038
6,AATATAAA,-0.136 ± 0.075
7,GAATCGTC,-0.134 ± 0.0042
8,CTTGGTAA,-0.0337 ± 0.0022
9,CGGTTGGC,0.0524 ± 0.0091
10,GGCAGAAC,-0.108 ± 0.021
11,ATTCGAGG,-0.0453 ± 0.059
12,CTCAACAA,-0.0469 ± 0.016
13,ATCTTTGG,-0.0524 ± 0.014
14,GATCCTAA,-0.0882 ± 0.11
15,CCAGAGGG,-0.293 ± 0.04
16,ACAGGCAT,-0.00683 ± 0.051
17,AGCCGGAG,-0.116 ± 0.1
18,AGGATCGA,0.0479 ± 0.045
19,CCTGAACC,-0.233 ± 0.068
20,GTATACAC,-0.0081 ± 0.0025
21,CCATGTCA,0.0353 ± 0.054
22,GGCAGCCC,-0.155 ± 0.029
23,GAAGGCAC,0.0792 ± 0.019
24,AGCAAGCG,-0.0283 ± 0.0063
25,CCTTGGAC,-0.13 ± 0.0035

row,Sequence,PBM E-score of 8-mer
1,CTTAGTGC,0.109 ± 0.052
2,GGGGACAC,0.0834 ± 0.069
3,GTTGCGCA,0.038 ± 0.051
4,TGTCCAAA,-0.0314 ± 0.019
5,GTGTCCGA,0.169 ± 0.013
6,AAGACCTT,-0.285 ± 0.011
7,ATTCCGTC,0.0347 ± 0.046
8,CACCGGGC,-0.108 ± 0.015
9,GGGGGTGA,0.2941 ± 0.0011
10,AACCCACT,-0.167 ± 0.0074
11,AGGAGGAT,-0.124 ± 0.071
12,AAGCCTAC,-0.215 ± 0.039
13,ACCAGCCT,-0.14 ± 0.082
14,GCTTGTCC,-0.134 ± 0.0022
15,CCAGCGAG,0.0399 ± 0.024
16,CCCGCTTC,0.153 ± 0.043
17,GTTAAAAA,0.0142 ± 0.12
18,ATCAATTC,0.0567 ± 0.048
19,CTTGGAAA,-0.0932 ± 0.023
20,GCCACCGA,0.047 ± 0.0033
21,AGACCGAC,0.0123 ± 0.075
22,ACGTTATC,0.0382 ± 0.014

# Reference: the supplement of paper PMC4166925
